# Where a name gives a salt, the structure may show the parent alone. Whole data set: some 2,000 compounds, median “fractional viability relative to vehicle” near 0.91, cut for the lowest 2% near 0.045. The list shows a part of the results.
# Test system: TYKNU
# Test: fractional viability relative to vehicle; TYKNU is a high-grade serous ovarian cancer line; higher = less growth inhibition
# Details: 72 h
# How it was run: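 TYKNU control cells or lentiCRISPRv2 knockout derivatives were seeded at 500 cells per well into drug-stamped 384-well plates holding a ~2100-compound library at 2 or 10 μM, in duplicate. Cells were grown at 37 °C in 5% CO2 in RPMI 1640 with 10% FBS, and drug treatment lasted 72 h. Viability was read by Cell Titer Glo luminescence. Duplicate treatment wells were averaged and normalised to duplicate control wells from the same plate position.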
# [1] = 2uM, genotype: DNM1L knockout (sgDNM1L #1)
# [2] = 2uM, genotype: sgCTRLA1 (non-targeting control)
# [3] = 10uM, genotype: DNM1L knockout (sgDNM1L #1)
# [4] = 10uM, genotype: sgCTRLA1 (non-targeting control)
Compound,fractional viability [1],fractional viability [2],fractional viability [3],fractional viability [4]
CN1CC(=O)N2[C@H](c3ccc4c(c3)OCO4)c3[nH]c4ccccc4c3C[C@@H]2C1=O [Tadalafil],1.12,1.09,1.13,1.06
CCN(C(=O)c1c(O)c2c(Cl)cccc2n(C)c1=O)c1ccccc1 [Laquinimod],1.22,1.14,0.958,1.08
CCc1nc(N)nc(N)c1-c1ccc(Cl)cc1 [Pyrimethamine],0.792,0.997,0.634,0.546
Cc1c(C(=O)NN2CCCCC2)nn(-c2ccc(Cl)cc2Cl)c1-c1ccc(I)cc1,0.975,1.02,0.522,0.82
CC(C)NCC(O)COc1ccc(CCOCC2CC2)cc1 (centres undefined) [Betaxolol],1.07,1.01,0.827,0.976
CCOc1nc2cccc(C(=O)OCc3oc(=O)oc3C)c2n1Cc1ccc(-c2ccccc2-c2noc(=O)[nH]2)cc1 [Azilsartan Medoxomil],1.07,1.05,1.05,1.03
COc1cc(OC2CCN(C)CC2)ccc1Nc1ncc2c(n1)n(C1CCCC1)c(=O)n2C,0.688,0.769,0.337,0.315
C#CCN[C@@H]1CCc2ccccc21 [Rasagiline Mesylate],0.932,0.962,0.851,1.05
COc1ccc(NS(=O)(=O)c2sc3ccc(Cl)cc3c2C)cc1N1CCNCC1,0.975,1.08,0.55,0.896
CC(C)n1nc(-c2ccc3oc(N)nc3c2)c2c(N)ncnc21,0.194,0.191,0.181,0.171
O=C(O)c1cc(C(F)(F)F)ccc1N1CC[C@H](OCc2ccccn2)C1,0.659,0.901,0.646,0.674
N[C@@H](Cc1c[nH]c2ccc(O)cc12)C(=O)O [5-hydroxytryptophan (5-HTP)],0.799,1.16,0.804,1.09
CC(=O)Nc1nc2c(Oc3cc(-c4ccc(C(F)(F)F)cc4)ncn3)cccc2s1,0.954,1.19,0.867,1.13
O=C(NO)c1cccc(C(=O)NCCc2ccccc2)c1,0.794,0.895,0.81,0.767
N=C(N)Nc1ccc(C(=O)Oc2ccc3cc(C(=N)N)ccc3c2)cc1 [Nafamostat Mesylate],1.06,0.979,0.95,0.821
NC(=O)c1nc(F)cnc1O [Favipiravir (T-705)],0.808,1.02,0.766,0.755
CCCCc1nc2cc(/C=C/C(=O)NO)ccc2n1CCN(CC)CC [Pracinostat (SB939)],0.146,0.22,0.0823,0.0879
CC1(C)CC(=O)c2c(C(F)(F)F)nn(-c3ccc(C(N)=O)c(N[C@H]4CC[C@H](O)CC4)c3)c2C1,0.318,0.191,0.292,0.202
O=C(O)/C=C/c1ccc(O)c(O)c1 [Caffeic Acid],1.07,1.15,0.772,1.11
COc1cc2nc(N(C)CCCNC(=O)C3CCCO3)nc(N)c2cc1OC (centres undefined) [Alfuzosin HCl],1.09,1.05,1.03,0.9
N#CSc1cc(SC#N)c(N)nc1N,0.715,1.01,0.0686,0.0669

Compound,fractional viability [1],fractional viability [2],fractional viability [3],fractional viability [4]
N[C@H]1C[C@@H]1c1ccc(-c2cccc(O)c2)cc1,0.733,1.13,0.655,0.979
COc1ccc(-c2ccc3ncc4c(c3c2)n(-c2ccc(N3CCNCC3)c(C(F)(F)F)c2)c(=O)n4C)cn1,0.0297,0.0315,0.0158,0.0115
CC(=O)O[C@]1(C(C)=O)CC[C@H]2[C@@H]3C=C(Cl)C4=CC(=O)[C@@H]5C[C@@H]5[C@]4(C)[C@H]3CC[C@@]21C [Cyproterone Acetate],0.763,0.998,0.766,1.01
CC(C)c1cc(-c2n[nH]c(=O)n2-c2ccc3c(ccn3C)c2)c(O)cc1O [Ganetespib (STA-9090)],0.299,0.204,0.248,0.206
C=CC(=O)Nc1cccc(Nc2nc(Nc3ccc(Oc4ccnc(C(=O)NC)c4)cc3)ncc2F)c1,0.823,1.01,0.241,0.311
CCCSc1nc(N[C@@H]2C[C@H]2c2ccc(F)c(F)c2)c2nnn([C@@H]3C[C@H](OCCO)[C@@H](O)[C@H]3O)c2n1 [Ticagrelor],0.944,1.12,0.492,0.903
Cn1cc(-c2cnn3c(N)c(Br)c([C@@H]4CCCNC4)nc23)cn1,0.366,0.375,0.393,0.42
C=C1C[C@@]2(O)O[C@@]3(C[C@H]2C(C)C)[C@@H](C)CC[C@@H]13 [Curcumol],1.04,1.03,0.901,1.09
O=C(O)COCCN1CCN(C(c2ccccc2)c2ccc(Cl)cc2)CC1 (centres undefined) [Cetirizine DiHCl],1.1,1.2,0.89,1.3
C=CC(=O)Nc1cc(Nc2nccc(-c3cn(C)c4ccccc34)n2)c(OC)cc1N(C)CCN(C)C,0.614,0.895,0.0431,0.0512
C#Cc1cccc(Nc2ncnc3cc4c(cc23)OCCOCCOCCO4)c1 [Icotinib],1.12,1.13,0.941,1.16
Cc1ccc(NCCCc2ccccc2)c(N)c1,0.983,0.888,1.03,0.879
C=CC(=O)Nc1cc(Nc2nccc(-c3c[nH]c4ccccc34)n2)c(OC)cc1N(C)CCN(C)C,0.324,0.409,0.0466,0.0525
CC1(C)[C@H](C(=O)O)N2C(=O)C[C@H]2S1(=O)=O [Sulbactam sodium],1.01,1.16,0.873,1.23
CC1(C)[C@H](C(=O)O)N2C(=O)C[C@H]2S1(=O)=O [Sulbactam],0.875,0.99,0.898,1.06
Cc1ncc(CO)c(CO)c1O [Pyridoxine HCl],1.09,1.12,0.753,1.09
O=C(O)c1ccc(-c2c[nH]c3ncc(-c4ccccc4)cc23)cc1C1CCCC1,0.881,0.794,0.524,0.567
CNS(=O)(=O)CCc1ccc2[nH]cc(C3CCN(C)CC3)c2c1 [Naratriptan],1.02,1.07,0.947,1.01
CC(=O)Oc1ccccc1C(=O)O [Aspirin],0.863,1.09,1.01,1.05
N=C(N)NS(=O)(=O)c1ccc(N)cc1 [Sulfaguanidine],0.76,1.12,1.2,1.16
O=C(Nc1nc2cccc(-c3ccc(CN4CCS(=O)(=O)CC4)cc3)n2n1)C1CC1 [Filgotinib (GLPG0634)],0.73,0.849,0.493,0.573

Compound,fractional viability [1],fractional viability [2],fractional viability [3],fractional viability [4]
COc1ccc2ccc(=O)oc2c1CC=C(C)C [Osthole],0.841,1.11,0.878,1.11
CC1=C(/C=C/C(C)=C/C=C/C(C)=C/C(=O)O)C(C)(C)CCC1 [Tretinoin],0.784,1.03,0.678,1.02
C[C@]12CC[C@H](O)CC1=CC[C@@H]1[C@@H]2CC[C@]2(C)C(n3cnc4ccccc43)=CC[C@@H]12 [Galeterone],1.06,1.2,0.62,1
CN(C)CCOC(c1ccccc1)c1ccccc1 [Diphenhydramine HCl],0.926,1.2,0.938,1.02
CCOC(=O)CCNc1cc(N2CCc3ccccc3CC2)nc(-c2ccccn2)n1,0.825,0.827,0.105,0.0825
COc1ccc2[nH]c([S+]([O-])Cc3ncc(C)c(OC)c3C)nc2n1 (centres undefined) [Tenatoprazole],0.907,1.23,0.706,1.2
CC(=O)[C@H]1CC[C@H]2[C@@H]3CCC4=CC(=O)CC[C@]4(C)[C@H]3CC[C@]12C [Progesterone],0.878,0.943,0.785,0.879
Cn1cc(CNCC2CCN(c3ncc(C(=O)NO)cn3)CC2)c2ccccc21,0.0832,0.115,0.0838,0.105
CN(C)CC/C=C1/c2ccccc2Sc2ccc(Cl)cc21 [Chlorprothixene],1.09,1.07,0.734,0.947
C[C@]12CC[C@@H]3c4ccc(O)cc4CC[C@H]3[C@@H]1CC[C@@H]2O [Estradiol],0.859,1.12,0.757,0.975
CCNC(=O)Nc1ccc(-c2nc3c(c(N4CCOC[C@@H]4C)n2)CCN(C2COC2)C3)cc1,0.812,0.971,0.926,0.811
CCCN(CCC)S(=O)(=O)c1ccc(C(=O)O)cc1 [Probenecid],1.19,1.04,1.1,0.964
CCNC(=O)c1[nH]nc(-c2cc(Cl)c(O)cc2O)c1-c1ccc(OC)cc1,0.407,0.325,0.26,0.139
CC(C)c1ccc(NC(=O)Cn2cnc3c2c(=O)n(C)c(=O)n3C)cc1,1.07,1.17,0.831,1.07
C[C@H](NC(=O)/C(C#N)=C/c1cccc(Br)n1)c1ccccc1,0.9,0.999,0.0615,0.0707
Fc1ccc(Cl)cc1-c1nc(Nc2ccncc2)c2nccnc2n1,0.924,1,0.895,0.702
CO[C@H]1C[C@@H]2CC[C@@H](C)[C@@](O)(O2)C(=O)C(=O)N2CCCC[C@H]2C(=O)O[C@H]([C@H](C)C[C@@H]2CC[C@@H](OCCO)[C@H](OC)C2)CC(=O)[C@H](C)/C=C(\C)[C@@H](O)[C@@H](OC)C(=O)[C@H](C)C[C@H](C)/C=C/C=C/C=C/1C [Everolimus (RAD001)],0.676,0.719,0.57,0.615
CN(C)CCN(Cc1ccccc1)c1ccccn1 [Tripelennamine HCl],0.994,1.11,0.752,1.14
CC1CNc2c(cccc2S(=O)(=O)N[C@@H](CCCNC(=N)N)C(=O)N2CC[C@@H](C)C[C@@H]2C(=O)O)C1 (some centres undefined) [Argatroban],1.09,1.15,0.917,0.969

# — the supplement of paper PMC5919970
